Laboratory results from EPA's CvTdb concentration-time database.
The source gives many values for each of these; only a part stands here.

Legend:
Assay in all cases: concentration in plasma after dosing
Rat [1] = details: 1 h; dosed: Methyleugenol; 37 mg/kg; oral; Male; F344
Rat [2] = details: dosed: Methyleugenol, 37 mg/kg, oral, Male, F344
Rat [3] = details: dosed: Methyleugenol, 75 mg/kg, oral, Male, F344
Rat [4] = details: dosed: Methyleugenol, 37 mg/kg, oral, Female, F344/N
Rat [5] = details: dosed: Methyleugenol, 75 mg/kg, oral, Female, F344/N
Rat [6] = details: dosed: Methyleugenol, 150 mg/kg, oral, Male, F344
Rat [7] = details: dosed: Methyleugenol, 75 mg/kg, oral, Male, F344/N
Rat [8] = details: dosed: Methyleugenol, 150 mg/kg, oral, Male, F344/N
Rat [9] = details: dosed: Methyleugenol, 75 mg/kg, oral, Female, F344/N; remark: listed apart in the source
Rat [10] = details: dosed: Methyleugenol, 37 mg/kg, oral, Female, F344/N; remark: listed apart in the source
Rat [11] = details: dosed: Methyleugenol, 75 mg/kg, oral, Male, F344; remark: listed apart in the source
Rat [12] = details: 5 min; dosed: Methyleugenol; 37 mg/kg; oral; Female; F344
Rat [13] = details: dosed: Methyleugenol, 150 mg/kg, oral, Male, F344/N; remark: listed apart in the source
Rat [14] = details: dosed: Methyleugenol, 150 mg/kg, oral, Female, F344/N
Rat [15] = details: dosed: Methyleugenol, 75 mg/kg, oral, Male, F344/N; remark: listed apart in the source
Rat [16] = details: 5 min; dosed: Methyleugenol; 37 mg/kg; oral; Female; F344; remark: listed apart in the source
Rat [17] = details: dosed: Methyleugenol, 75 mg/kg, oral, Male, F344/N; remark: listed apart in the source
Rat [18] = details: dosed: Methyleugenol, 150 mg/kg, oral, Female, F344/N; remark: listed apart in the source
Rat [19] = details: dosed: Methyleugenol, 75 mg/kg, oral, Female, F344
Rat [20] = details: dosed: Methyleugenol, 150 mg/kg, oral, Female, F344/N; remark: listed apart in the source
Rat [21] = details: dosed: Methyleugenol, 150 mg/kg, oral, Female, F344/N; remark: listed apart in the source
Rat [22] = details: dosed: Methyleugenol, 150 mg/kg, oral, Male, F344/N; remark: listed apart in the source
Rat [23] = details: dosed: Methyleugenol, 75 mg/kg, oral, Male, F344; remark: listed apart in the source
Rat [24] = details: dosed: Methyleugenol, 150 mg/kg, oral, Female, F344/N; remark: listed apart in the source
Rat [25] = details: dosed: Methyleugenol, 37 mg/kg, oral, Female, F344/N; remark: listed apart in the source
Rat [26] = details: dosed: Methyleugenol, 75 mg/kg, oral, Male, F344/N; remark: listed apart in the source
Rat [27] = details: dosed: Methyleugenol, 75 mg/kg, oral, Female, F344; remark: listed apart in the source
Rat [28] = details: dosed: Methyleugenol, 150 mg/kg, oral, Male, F344; remark: listed apart in the source
Rat [29] = details: 0.5 h; dosed: Methyleugenol; 37 mg/kg; oral; Female; F344
Rat [30] = details: dosed: Methyleugenol, 150 mg/kg, oral, Female, F344
Rat [31] = details: dosed: Methyleugenol, 75 mg/kg, oral, Female, F344/N; remark: listed apart in the source
Rat [32] = details: dosed: Methyleugenol, 75 mg/kg, oral, Male, F344/N; remark: listed apart in the source
Rat [33] = details: dosed: Methyleugenol, 37 mg/kg, oral, Female, F344/N; remark: listed apart in the source
Rat [34] = details: dosed: Methyleugenol, 150 mg/kg, oral, Male, F344/N; remark: listed apart in the source
Rat [35] = details: dosed: Methyleugenol, 150 mg/kg, oral, Female, F344; remark: listed apart in the source
Rat [36] = details: dosed: Methyleugenol, 75 mg/kg, oral, Female, F344/N; remark: listed apart in the source

C=CCc1ccc(OC)c(OC)c1 [Methyleugenol]
Details | concentration in plasma [ng/mL]
Rat [1] | 137
Rat [12] | 1370
Rat [16] | 578
Rat [29] | 100

Details | concentration in plasma [ng/mL]
Rat [2], 1 h | 160
Rat [2], 2 h | 50
Rat [3], 1 h | 1350
Rat [3], 2 h | 364
Rat [4], 1 h | 43.8
Rat [4], 3 h | 20.7
Rat [5], 5 min | 611
Rat [5], 6 h | 205
Rat [6], 5 min | 2400
Rat [6], 6 h | 659
Rat [7], 3 h | 60.1
Rat [7], 20 min | 1360
Rat [8], 2 h | 587
Rat [8], 4 h | 805
Rat [9], 8 h | 36.1
Rat [9], 20 min | 202
Rat [10], 1.5 h | 32.8
Rat [10], 3 h | 25.4
Rat [11], 5 min | 1880
Rat [11], 6 h | 64
Rat [13], 2 h | 770
Rat [13], 24 h | 6.38
Rat [14], 2 h | 372
Rat [14], 12 h | 21.6
Rat [15], 1 h | 67.4
Rat [15], 4 h | 181
Rat [17], 1.5 h | 130
Rat [17], 8 h | 53.8
Rat [18], 2 h | 504
Rat [18], 5 h | 2110
Rat [19], 1 h | 993
Rat [19], 2 h | 284
Rat [20], 1.5 h | 1140
Rat [20], 8 h | 147
Rat [21], 3 h | 664
Rat [21], 10 min | 2300
Rat [22], 0.5 h | 2520
Rat [22], 8 h | 183
Rat [23], 0.5 h | 859
Rat [23], 1.5 h | 844
Rat [24], 0.25 h | 2080
Rat [24], 6 h | 510
Rat [25], 0.5 h | 490
Rat [25], 4 h | 14.5
Rat [26], 3 h | 116
Rat [26], 10 min | 747
Rat [27], 5 min | 4640
Rat [27], 6 h | 59
Rat [28], 5 min | 3350
Rat [28], 6 h | 755
Rat [30], 0.25 h | 1080
Rat [30], 4 h | 880
Rat [31], 4 h | 87.3
Rat [31], 10 min | 1030
Rat [32], 1 h | 147
Rat [32], 8 h | 52.9
Rat [33], 1 h | 28.7
Rat [33], 4 h | 25.4
Rat [34], 6 h | 989
Rat [34], 10 min | 1520
Rat [35], 1 h | 1510
Rat [35], 2 h | 579
Rat [36], 1 h | 151
Rat [36], 12 h | 7.73
